Assay results reported in article PMC4336329 (PLoS ONE, 2015).
Among all 310,000 compounds or so, about 2,200 (0.71%) showed an effect of 50% or more. Effects have a minus sign here. The list shows a part of the results.

Molecular target: human ether-à-go-go-related gene (hERG) potassium channel (human, UniProt Q12809)
Assay: primary screen, population patch clamp on CHO cells stably expressing hERG

Chain of human ether-à-go-go-related gene (hERG) potassium channel (Q12809 whole entry, looked up): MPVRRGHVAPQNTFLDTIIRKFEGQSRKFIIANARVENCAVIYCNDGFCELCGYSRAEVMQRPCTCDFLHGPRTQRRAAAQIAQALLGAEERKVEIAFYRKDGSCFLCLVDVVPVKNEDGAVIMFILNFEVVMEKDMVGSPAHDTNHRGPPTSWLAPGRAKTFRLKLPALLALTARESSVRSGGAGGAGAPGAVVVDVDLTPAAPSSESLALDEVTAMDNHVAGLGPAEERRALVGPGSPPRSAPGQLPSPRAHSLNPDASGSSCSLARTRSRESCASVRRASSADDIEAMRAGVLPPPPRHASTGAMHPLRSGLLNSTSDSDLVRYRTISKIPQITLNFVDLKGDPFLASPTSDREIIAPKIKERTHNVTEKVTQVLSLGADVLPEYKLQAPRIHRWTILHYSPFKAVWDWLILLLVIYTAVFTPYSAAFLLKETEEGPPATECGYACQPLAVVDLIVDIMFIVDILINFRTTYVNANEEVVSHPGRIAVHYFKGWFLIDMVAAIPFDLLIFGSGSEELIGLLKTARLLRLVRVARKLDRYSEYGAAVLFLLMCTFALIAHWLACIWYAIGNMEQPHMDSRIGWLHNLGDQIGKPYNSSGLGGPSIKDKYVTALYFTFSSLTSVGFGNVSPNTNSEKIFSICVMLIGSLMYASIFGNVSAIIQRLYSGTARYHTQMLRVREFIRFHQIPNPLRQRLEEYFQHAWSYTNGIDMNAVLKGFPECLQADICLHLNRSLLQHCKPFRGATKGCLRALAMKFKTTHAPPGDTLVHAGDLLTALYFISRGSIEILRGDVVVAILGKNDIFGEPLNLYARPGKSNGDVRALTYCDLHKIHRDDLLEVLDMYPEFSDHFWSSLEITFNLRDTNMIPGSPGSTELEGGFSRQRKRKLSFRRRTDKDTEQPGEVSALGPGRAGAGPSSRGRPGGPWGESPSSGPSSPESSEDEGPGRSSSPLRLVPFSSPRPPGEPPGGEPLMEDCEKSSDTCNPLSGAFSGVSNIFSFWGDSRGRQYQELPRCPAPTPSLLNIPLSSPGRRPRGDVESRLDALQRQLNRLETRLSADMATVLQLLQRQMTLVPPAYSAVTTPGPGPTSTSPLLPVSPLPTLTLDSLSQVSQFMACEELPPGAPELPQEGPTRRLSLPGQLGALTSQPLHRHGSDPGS

SMILES	hERG current change (%, negative = inhibition) at 1uM
CCCCCCCn1c(=O)c(C(=O)OC)c(N)c2ccccc21	9.28%
CCOc1ccccc1N(CC(=O)Nc1cc(OC)ccc1OC)S(=O)(=O)c1ccccc1	20.6%
COCCN1C(=O)c2ccc(C(=O)Nc3cccnc3)cc2C1=O	10.9%
CC1=C(C(=O)OC2CCCCC2)C(c2ccco2)n2ncnc2N1 (stereo not shown)	5.57%
Cc1ccc(N2CC(O)Cn3c2nc2c3c(=O)n(C)c(=O)n2C)cc1 (stereo not shown)	13.5%
CCCOP(=O)(c1ccc(N(C)C)cc1)C(O)c1cc(OC)ccc1OC (stereo not shown)	13.1%
CC(C)NC(=O)c1ccc2c(c1)S(=O)(=O)c1ccccc1C2=O	20.3%
COc1cccc(NC(=O)CCc2nc(-c3ccccc3F)no2)c1	8.74%
O=C(O)c1ccc(N/N=C/c2ccc3nccnc3c2)cc1	8.83%
O=c1nc(SCc2c(F)cccc2Cl)nc(-c2ccccc2)[nH]1	14.9%
O=C(c1cccc(-n2cccc2)c1)N1CCN(S(=O)(=O)c2ccccc2)CC1	-0.678%
CCNC(=O)c1ccc(OCC(=O)Nc2ccc(F)cc2)c(OC)c1	0.741%
CCCn1nc(-c2nnc(-c3ccc(C)c(C)c3)o2)c2ccccc2c1=O	-7.16%
Cc1ncc([N+](=O)[O-])n1CCOC(=O)c1cc(Cl)cc(Cl)c1N	-19.6%
CCC(C)n1c(=N)c(C#N)cc2c(=O)n3cc(C)ccc3nc21 (stereo not shown)	-22%
O=C(CSCC(=O)NCc1ccco1)NCc1ccco1	-9.26%
O=S(=O)(c1cccs1)N1CCN(Cc2nc3ccccc3s2)CC1	8.4%
O=c1cc(-c2ccccc2Cl)oc2cccc(O)c12	-6.04%
CCN(CC)S(=O)(=O)c1ccc(NC(=S)NC(=O)CC(C)C)cc1	14.1%
CC(CN1CCOCC1)OC(=O)C1COc2ccccc2O1.Cl (stereo not shown)	7.15%

SMILES	hERG current change (%, negative = inhibition) at 1uM
COc1ccc(-c2noc(CN(C)C(=O)c3ccc4c(c3)OCO4)n2)cc1	11.6%
Cc1ccc(CN2CCN(/N=C/c3cc(Br)cc(Br)c3O)CC2)cc1	3.7%
C=CCc1cc(OC)ccc1OCC(O)CN1CCN(c2ccc(OC)cc2)CC1.Cl (stereo not shown)	-38.1%
O=P(Nc1c(Cl)cccc1Cl)(c1ccccc1)c1nc2c(s1)CCCC2 (stereo not shown)	8.68%
COc1ccc(/C=C/c2c(-c3ccc(OC)cc3)oc3ccccc23)cc1	5.68%
Cn1ccnc1SCC(=O)NC12CC3CC(CC(C3)C1)C2	20.3%
Cc1ccc(OCC(=O)N(C)CCc2ccccn2)cc1	8.87%
O=C(NCc1cccc(Br)c1)C1CC(c2ccccc2[N+](=O)[O-])=NO1 (stereo not shown)	1.77%
CN(C)S(=O)(=O)c1ccc(C(=O)NCCOc2ccccc2)cc1	3.42%
CSc1ccc(S(=O)(=O)NCCSC(C)(C)C)cc1	0.386%
Cc1cccc(NC(=O)CCN2C(=O)c3ccccc3S2(=O)=O)c1C	8.97%
Cc1cccc(C)c1NC(=O)NCCCN1CCN(c2ccccc2)CC1	-12.1%
O=C1N(CCCN2C(=O)C3(OCCO3)c3ccccc32)c2ccccc2C12OCCO2	3.67%
CC1CCN(c2ccc3nnc(CCC(=O)NCCCOC(C)C)n3n2)CC1	11.6%
CC(=O)Nc1ccc(OCC(O)Cn2nc(C)c(C)c2C)cc1 (stereo not shown)	11.1%
O=C(NC1CCCCCC1)c1cccc(COCC(F)(F)F)c1	0.152%
CC(C)n1c(N2CCN(CC(=O)NCc3cccs3)CC2)nc2ccccc21	-30.9%
CC(C)C(OC(=O)c1cccs1)C(=O)NCc1ccccc1 (stereo not shown)	0.497%
CC1CCN(C(=O)Cn2c(SCC(=O)Nc3nccs3)nc3ccccc32)CC1	-5.8%
COc1ccccc1N1CCN(/N=C/c2cc(Br)ccc2F)CC1	14.9%

SMILES	hERG current change (%, negative = inhibition) at 1uM
CCc1ccccc1NC(=O)Nc1cc(F)ccc1F	6.16%
S=c1[nH]nc(-c2ccccc2)n1/N=C/C=C/c1ccco1	18.6%
O=C(CCc1nnc(-c2ccsc2)o1)N1CCCCC1CCn1ccnc1 (stereo not shown)	2.53%
CC(C)[C@H](NC(=O)N1CC(=O)Nc2ccccc21)C(=O)Nc1nccs1	24.4%
CCC1CCCCN1C(=S)NC(=O)c1ccc(F)c(S(=O)(=O)N2CCOCC2)c1 (stereo not shown)	9.07%
COc1ccc(N2CCC(CNC(=S)Nc3cccc(C)c3)C2)cc1 (stereo not shown)	13.7%
O=C(O)c1ccc(-n2nc(C(F)(F)F)c3c2-c2ccoc2CC3)cc1	13.6%
O=S(=O)(c1ccc2c(c1)OCCO2)N1CCN(c2nc(-c3cccnc3)nc3ccccc23)CC1	-2.23%
CC(C)(C)C(=O)NC1(C(F)(F)F)NC(=O)N(c2ccc(F)cc2)C1=O (stereo not shown)	-4.36%
COC(=O)c1cc(N2CCNCC2)nc2ccccc12.Cl	5.27%
Cc1sc(-c2ccncc2)nc1OC(=O)c1ccc(F)cc1F	17.8%
Fc1ccc(Cn2nnc(-c3ccc(Cl)cc3)n2)cc1	11.5%
COc1ccc(C(=O)N/C(=C\c2ccccc2)C(=O)Nc2ccccc2C(=O)O)cc1	13.7%
Cc1cc(C(=O)Nc2ccccc2N2CCOCC2)c(C)o1	2.21%
CCc1cccc(C)c1NC(=O)CSc1nc(-c2ccccc2F)nc2nc[nH]c12	6.87%
c1coc(C2OCC3(CO2)COC(c2ccco2)OC3)c1 (stereo not shown)	13.3%
O=C(CCNC(=O)c1ccc(Br)cc1)NC1CCCCCC1	8.96%
O=C(Nc1ccccc1)N1N=C(c2ccc(F)cc2)CC1c1ccc(F)cc1 (stereo not shown)	-2.22%
